# About 200 (0.44%) of roughly 45,000 compounds were called active. Another 7% or so got no clear call; they are omitted. The call rests on the fitted dose curve; in most records, active means well fitted activation curve with a large enough effect; inconclusive means small, poorly fitted or top-dose-only effect; inactive means no such curve, though single readings can be large or run the other way. Some of the results follow.
# Experiment: qHTS of TDP-43 Inhibitors: NCGC Sytravon Library Screen; further: 0% is about no effect; nearly all actives have a fitted effect of over 55% in size
# Conditions: yeast TDP-43 toxicity rescue, BacTiter-Glo growth, 24 h; series mostly up to 46.1 µM; growth rescue (activation): at the top concentration
# Outline: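 TDP-43-expressing yeast, pregrown in raffinose, seeded at OD600 0.02 in galactose medium with compound for 24 hr at 30 deg C. Growth read by BacTiter-Glo luminescence, so rescue of toxicity appears as activation.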
row,SMILES,growth rescue (activation)
1,CC1(C)Cc2c(C#N)c(NCc3ccco3)nc(-c3ccco3)c2CO1,inactive: 10.3%
2,COC(=O)c1ccccc1NCc1cc(=O)oc2cc(O)c(O)cc12,inactive: 5.51%
3,O=C(N/N=C/c1cccc2ccccc12)c1n[nH]c2c1CCCC2,inactive: 4.34%
4,CNC(=O)CS(=O)CC(=O)Nc1cc(OC(C)C)c(Cl)cc1Cl (stereo unspecified),inactive: -3.37%
5,C/C(CS(=O)(=O)c1ccc(Cl)cc1)=N/NC(N)=S,inactive: 1.94%
6,COc1cc(NS(=O)(=O)c2ccc(NC(=O)c3ccc(S(=O)(=O)N4CCCCC4)cc3)cc2)ncn1,inactive: 10.5%
7,CC(C)(C)C(=O)Nc1sc(-c2ccccc2)cc1C(=O)O,inactive: 14.4%
8,Cc1cc(-c2ccccc2)n2ncc(-c3ccccc3)c2n1,inactive: -4.74%
9,Nc1nnc(SCC(=O)Nc2cccc3ccccc23)s1,inactive: -10.1%
10,COc1ccc(OC)c(NC(=O)C2(C)CCN2C(=O)Cc2ccccc2)c1 (stereo unspecified),inactive: 7.89%
11,O=C(COc1ccc(Cl)cc1)NCCNC(=O)c1ccccn1,inactive: -4.15%
12,Oc1ccc(-c2csc(-c3cccnc3)n2)cc1O,inactive: -2.87%
13,C=CCOc1ccc(-c2nc3c(c(=O)[nH]c(=O)n3CCCC)n2C)cc1Br,inactive: 8.19%
14,COc1ccc(CN(C)C(=O)c2cccc(Oc3ccccc3)c2)c(OC)c1OC,inactive: 28.6%
15,CCn1c(CC(=O)Nc2ccc(F)cc2)nnc1SCC(=O)NC1CCCC1,inactive: -9.74%
16,COc1ccc(OC)c(/C=N/NC(=O)C(=O)N/N=C/c2cc(OC)ccc2OC)c1,inactive: 3.5%
17,NC(N)=NCC(O)CN(c1ccccc1)c1ccccc1 (stereo unspecified),inactive: 13.5%
18,Cc1ccccc1OCC(=O)NNC(=O)Cn1[nH]c(=O)c2ccccc2c1=O,inactive: 8.72%
19,COc1ccc(CNC(=O)C2CCCN(C(=O)Nc3ccccc3OC)C2)cc1 (stereo unspecified),inactive: -0.937%
20,CCc1cccc(CC)c1NC(=O)CO/N=C(\C)c1cccs1,inactive: 39.3%
21,NC(=O)CSc1nccn1Cc1ccc2c(c1)OCO2,inactive: 13.7%
22,Cc1ccc(CNC(=O)CCS(=O)(=O)c2ccc(Cl)cc2)cc1,inactive: 9.69%

row,SMILES,growth rescue (activation)
1,CC(=O)Nc1ccc(S(=O)(=O)N2CCN(Cc3csc(C)n3)CC2)cc1,inactive: -4.04%
2,O=C(O)Cc1ccc(NC(=S)NCc2ccco2)cc1,inactive: 12.5%
3,CC(=O)N1CCC(N(CCN2CCOCC2)C(=S)Nc2cc(C)cc(C)c2)CC1,inactive: 4.91%
4,COc1ccc(-c2nnc(-c3ccccc3O)o2)cc1,inactive: 6.43%
5,O=C(c1ccccc1)c1ccccn1,inactive: 7.79%
6,CCc1ccc(NC(=O)C2CCCN(S(=O)(=O)c3c(C)[nH]c(=O)[nH]c3=O)C2)cc1 (stereo unspecified),inactive: -4.13%
7,CCN=C1SC(CC(=O)Nc2sc3c(c2C#N)CCCC3)C(=O)N1CC (stereo unspecified),inactive: -14.5%
8,COC(=O)c1ccc(Cn2nc(-c3ccc(C)c(C)c3)ccc2=O)cc1,inactive: -12.4%
9,C#CCn1cc(/C=N/NC(=O)COc2cccc3cccnc23)c2ccccc21,inactive: -8.22%
10,CCOC(=O)C1CCN(C(=O)COC(=O)CNC(=O)c2ccc(C(C)(C)C)cc2)CC1,inactive: 7.71%
11,O=C(Nc1ccc(C(F)(F)F)cc1)C1CC(=O)N(c2ccc3c(c2)OCCO3)C1 (stereo unspecified),inactive: 14.8%
12,Cc1ccc(-c2nnn(CC(=O)N(Cc3ccco3)C(C(=O)NC(C)(C)C)c3ccncc3)n2)o1 (stereo unspecified),inactive: 8.21%
13,Cc1cc(=O)n2c(C(=O)Nc3ccc(C(=O)OC(C)C)cc3)c(C(=O)Nc3ccccc3)sc2n1,inactive: 6.29%
14,CCSc1nnc(-c2ccc(S(=O)(=O)N3CCOCC3)cc2)n1C,inactive: -39.6%
15,CC(=O)OCC[n+]1c(C)n(-c2ccccc2)c2ccc(Cl)cc21,inactive: 1.06%
16,Cn1c(N)c(C(=O)CSc2nnc(C3CC3)n2Cc2ccccc2)c(=O)n(C)c1=O,inactive: 2.45%
17,O=C(CSc1nnnn1-c1ccccc1)N1CCN(C(=O)c2ccco2)CC1,inactive: -10.9%
18,COc1cc(CN2CCN(Cc3ccco3)CC2)cc(OC)c1,inactive: 2.68%
19,Cc1nc2nc(C)c(CCC(=O)NCCCN3CCN(c4cccc(Cl)c4)CC3)c(C)n2n1,inactive: -2.07%
20,CCN(CC(=O)Nc1ccc(N2CCOCC2)cc1)CC(=O)NC(C)(C)C,inactive: -7.33%
21,O=C(Nc1noc2ccccc12)c1cccc(F)c1,inactive: 16.6%
22,O=C(COc1ccccc1)NCC(=O)N/N=C/C=C/c1ccccc1,inactive: 5.67%

row,SMILES,growth rescue (activation)
1,COc1ccc(S(=O)(=O)N2CCOCC2)cc1NC(=O)c1ccccc1-c1ccc(C(F)(F)F)cc1,inactive: -1.04%
2,CCN(CC)C(=O)CN1C(=O)C(=O)c2ccccc21,inactive: -4.4%
3,COc1cc(NC(=O)CN2C(=O)COc3ccccc32)cc(OC)c1,inactive: -6.38%
4,COc1ccc(N(CC(=O)NCc2ccccc2C)S(=O)(=O)c2ccc(C)cc2)cc1OC,inactive: 8.22%
5,O=c1cnc2ccccc2n1Cc1ccccc1C(F)(F)F,inactive: 6.77%
6,COc1cc(/C=C(\C#N)C(=O)Nc2cc(C(F)(F)F)ccc2Cl)ccc1OCC(=O)Nc1cccc(C(F)(F)F)c1,inactive: 23%
7,CC(C)NC(=O)C1(C)CCN1C(=O)c1cccc(Cl)c1 (stereo unspecified),inactive: 6.58%
8,CCOc1ccc(S(=O)(=O)Nc2ccc3c(c2)c(C(C)=O)c(C)n3S(=O)(=O)c2ccc(OCC)cc2)cc1,inactive: 0.356%
9,O=C(OCC(=O)N1CCOCC1)c1ccc(Br)cc1,inactive: -0.554%
10,CCCCN(C)CCNC(=O)C(NC(=O)C1CCC(C)CC1)C(C)C (stereo unspecified),inactive: -3.01%
11,O=c1[nH]c(-c2ccccc2)nnc1-c1ccccc1,inactive: -15.6%
12,Cc1ccc(NC(=O)CN2CCOCC2)cc1S(=O)(=O)N1CCCCC1,inactive: 8.97%
13,COc1ccccc1C(=O)NCC(=O)OCC(=O)N1CC(C)OC(C)C1 (stereo unspecified),inactive: 18.2%
14,COc1ccc(C(=O)N/C(=C\c2cccs2)C(=O)N2CCN(C)CC2)cc1OC,inactive: -21%
15,CCNC(=S)N/N=C(\C)c1cccc([N+](=O)[O-])c1,inactive: 1.99%
16,Cc1cc(NC(=O)CCCn2nc(C)c([N+](=O)[O-])c2C)no1,inactive: 1.16%
17,Cc1nc(CN2CCCCC2)cc(=O)[nH]1,inactive: -28.4%
18,COc1cc(OC)c(NS(=O)(=O)c2cc(C(=O)OC(C)C(=O)NC3CC3)c(Cl)cc2Cl)cc1Cl (stereo unspecified),inactive: 11.4%
19,COc1nccnc1NS(=O)(=O)c1ccc(NC(=S)NC(=O)c2ccccc2)cc1,inactive: -14.4%
20,CC(C)n1c(NCc2ccccc2O)nc2ccccc21,inactive: 8.98%
21,Cc1ccc(-c2nn(-c3ccccc3)cc2/C=N/NC(=O)c2ccncc2)o1,inactive: -6.92%
22,O=C(Nc1cccnc1Cl)c1cc(-c2ccc(Cl)cc2)on1,inactive: -1.92%

row,SMILES,growth rescue (activation)
1,Cc1ccc2c(Cl)c(C(=O)Nc3ccc4c(c3)OCO4)sc2c1,inactive: 11.1%
2,Cn1c(N)c(C(=O)COC(=O)CNS(=O)(=O)c2ccc(Cl)c(Cl)c2)c(=O)n(C)c1=O,inactive: 11.3%
3,Cc1ccc2ccccc2c1C(O)c1ncc(-c2ccccc2)[nH]1 (stereo unspecified),inactive: 1.99%
4,CCNC(=S)N1CCN(c2ccccn2)CC1,inactive: -3.77%
5,COc1ccccc1-c1c(C)nn2c(N3CCC(C)CC3)cc(C)nc12,inactive: -6.54%
6,CC(=O)c1ccc(OC2(C)CCN(Cc3ccc(OC(F)(F)F)cc3)C2)cc1 (stereo unspecified),inactive: 6.29%
7,CC1(C)OC(=O)C(=Cc2ccc(-c3ccc(S(N)(=O)=O)cc3)o2)C(=O)O1,inactive: -4.58%
8,Cc1ccc(CN(CC(=O)NCC2CCCO2)S(=O)(=O)c2ccc(C)cc2)cc1 (stereo unspecified),inactive: 21%
9,Cc1ccc(-c2nnn(CC(=O)N(Cc3ccco3)C(C(=O)NC(C)(C)C)c3ccc(C)o3)n2)o1 (stereo unspecified),inactive: -0.47%
10,COc1ccc(C)cc1S(=O)(=O)N1CC(C)OC(C)C1 (stereo unspecified),inactive: 7.2%
11,Cc1ccc(C(=O)c2ccccc2C(=O)OCC(=O)NCCc2ccc(Cl)cc2Cl)cc1,inactive: 20.1%
12,CC1(C(=O)NS(=O)(=O)c2ccc(Br)cc2)CCN1C(=O)CCC1CCCC1 (stereo unspecified),inactive: -14.6%
13,COc1cccc2[nH]c3c(Cl)ncnc3c12,inactive: -9.51%
14,O=C(O)C12CC3CC(C1)CC(n1cnc(Cl)n1)(C3)C2,inactive: 20.5%
15,CCn1cc(CN2CCC(C(=O)Nc3ccc(Oc4cccnc4)cc3)CC2)cn1,inactive: -86.2%
16,O=C(N/N=C/c1cccnc1)C12CC3CC(CC(C3)C1)C2,inactive: -0.125%
17,Cc1ccc(OCC(=O)N2CCOCC2)c([N+](=O)[O-])n1,inactive: 19%
18,O=C(Nc1ccc(C(F)(F)F)cc1-c1ccccc1)c1ccccc1,inactive: 7.38%
19,CC1(C(=O)NS(=O)(=O)c2ccc(Cl)cc2)CCN1C(=O)CCc1ccccc1 (stereo unspecified),inactive: 4.76%
20,CS(=O)(=O)Cc1cccc(C(=O)NC2CCSc3ccccc32)c1 (stereo unspecified),inactive: 6.76%
21,CCOC(=O)c1c(NC(=O)COc2ncnc3ccccc23)sc(C(C)=O)c1C,inactive: 2.73%
22,COc1ccccc1CNC(=O)C(Cc1c[nH]c2ccccc12)NC(=O)OCc1ccccc1 (stereo unspecified),inactive: 8.23%

row,SMILES,growth rescue (activation)
1,CC(=O)Nc1cccc(-c2ccnc3c2CC(C)(C(=O)NCC2CC2)O3)c1 (stereo unspecified),inactive: 4.59%
2,COC(=O)c1ccc(CSc2nnc3c(n2)[nH]c2ccccc23)cc1,inactive: -2.87%
3,CCOC(=O)c1sc2nc3c(SCC(=O)O)cc(C(=O)c4ccccc4O)cn3c(=O)c2c1C,inactive: 5.42%
4,O=C(c1ccc(=O)[nH]c1)N(Cc1ccco1)C1(C(=O)NC2CCCC2)CCCCC1,inactive: 21.8%
5,Cc1nc(C(=O)N2CCc3c([nH]c4ccccc34)C2c2ccccn2)cs1 (stereo unspecified),inactive: 8.82%
6,O=C(C1CC(=O)N(c2ccc(F)cc2)C1)N1CCCCCC1 (stereo unspecified),inactive: 1.56%
7,COc1cccc(C(NC(C)=O)c2nc(-c3cccnc3)cs2)c1 (stereo unspecified),inactive: -9.91%
8,COc1cc(/C=N/Nc2nc3ccccc3[nH]2)cc(OC)c1O,inactive: 25.5%
9,CCN(Cc1cn2cccnc2n1)C1CCCCC1,inactive: -2.26%
10,COc1ccc(NC(=S)NC2CCN(Cc3ccccc3)CC2)cc1OC,inactive: 5.05%
11,CCOC(=O)C1=C(CCl)NC(=O)NC1c1ccc2c(c1)OCO2 (stereo unspecified),inactive: 2.13%
12,O=c1c2ccc([N+](=O)[O-])cc2ncn1CCOc1cccc(Br)c1,inactive: 20%
13,Cc1ccc(NS(=O)(=O)c2cc3c4c(cccc4c2)C(=O)NC3=O)cc1,inactive: 1.91%
14,O=C(CN1C(=O)c2ccccc2S1(=O)=O)NCc1ccccc1,inactive: -1.86%
15,COc1ccc(CC(=O)Nc2cc(Cl)ccc2N2CCCC2)cc1,inactive: 13.9%
16,Cc1ccc(-c2nc(NC(=O)CSc3ccc4ccccc4n3)ns2)cc1,inactive: -3.91%
17,O=[N+]([O-])c1cc(C(F)(F)F)ccc1N1CCC(O)CC1,inactive: 17.4%
18,O=C(COC(=O)c1nsc(Cl)c1Cl)NC1CCCCC1,inactive: -19%

# — PubChem BioAssay AID1347073 (National Center for Advancing Translational Sciences (NCATS), 2019)
